# PubChem BioAssay AID686979 (National Center for Advancing Translational Sciences (NCATS), 2013)
# Values joined by “and” are separate entries in the source; they are usually repeats but may differ in a detail not shown here. Equal entries are not always repeated. The whole screen tested about 420,000 compounds, of which about 50,000 (12%) were called active. The shares of active, inactive and inconclusive entries below differ from those in the screen. Calls come from the whole dose curve; as a rule, active = well fitted inhibition curve with a large enough effect; inconclusive = small, poorly fitted or top-dose-only effect; inactive = flat fitted curve, though single readings scatter. A potency beside an inconclusive call is a rough fit, not a confirmed value.
# Assay: qHTS for Inhibitors of human tyrosyl-DNA phosphodiesterase 1 (TDP1): qHTS in cells in presence of CPT; note: nearly all actives have a fitted effect of over 55% in size
# Conditions: chicken DT40 Tdp1-/-;hTDP1 cells + 20 nM CPT, ATP luminescence, 48 h; series mostly up to 46.2 µM
# Method in brief: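 Cell growth measured by CellTiter-Glo luminescence after a minimum 48 h, 37 C compound exposure with 20 nM CPT in Tdp1-knockout DT40 cells stably expressing hTDP1, seeded 400/well; qHTS titration format.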
# Potency is the fitted concentration of half-maximal effect; tags give direction and shape of the fitted curve.
row,Compound,Potency
1,CCC(C)Sc1ccc([C@H]2N[C@@](CC(C)C)(C(=O)OC)[C@H]3C(=O)N(CC)C(=O)[C@@H]23)cc1 (some centres undefined),"inconclusive: 16.4 µM [inhibitor, single point]"
2,COc1cc(C(=O)Nc2ccc(OCc3cc(=O)n4cccc(C)c4n3)cc2)cc(OC)c1OC,"inconclusive: 23.1 µM [inhibitor, single point]"
3,Cc1cc(C(=O)Nc2ccc(C)c(S(=O)(=O)N3CCOCC3)c2)c2ccccc2n1,"inconclusive: 29.1 µM [inhibitor, single point]"
4,O=C(Nc1cccc(Cl)c1)N1CCC(CO)(CCOc2ccccc2)CC1,"inconclusive: 23.1 µM [inhibitor, single point]"
5,NC(Cc1ccc(C(F)(F)F)cc1)c1csc(Nc2cc(NCc3ccco3)ncn2)n1 (centres undefined),active: 20.6 µM
6,CCc1ccc(NC(=O)C2CCN(S(=O)(=O)c3c(C)noc3/C=C\c3ccc(OC)cc3)CC2)cc1,active: 8.2 µM
7,CCNc1nc(N2CCCC2)nc(N2CCCC2)n1,"inconclusive: 6.51 µM [inhibitor, partial curve]"
8,O=C(Nc1cccc(S(=O)(=O)N2CCCCCC2)c1)c1ccc2ccccc2n1,"inconclusive: 18.4 µM [inhibitor, single point]"
9,CC(=O)Nc1cccc(NS(=O)(=O)c2ccc3c(c2)CCC(=O)N3)c1,inactive
10,CCc1ccccc1N(CC(=O)NC1CCCCC1)C(=O)CCC(=O)Nc1ccccn1,inactive
11,CCCCC(C(=O)OCC(=O)c1ccc(OC)cc1)N1C(=O)c2ccccc2C1=O (centres undefined),"inconclusive: 29.1 µM [inhibitor, single point]"
12,C/C(=N\NC(=O)c1cccnc1)c1ccccc1,inactive
13,Cc1ccc(C(=O)CCC(=O)N2CCN(c3ccccc3O)CC2)cc1,"inconclusive: 11.6 µM [inhibitor, partial curve]"
14,CCOC(=O)C1C(c2ccc(O)cc2)NC(=O)NC1(O)C(F)(F)F (centres undefined),inactive
15,COc1ccc(Cc2nnc(NC(=O)Cc3cccs3)s2)cc1OC,inactive
16,COc1ccc(C2=NN(C(=O)CSc3ncccn3)C(c3ccc(OC)cc3)C2)cc1 (centres undefined),"inconclusive: 18.4 µM [inhibitor, single point]"
17,COCCn1c(N)c(C(=S)NC(=O)c2cccs2)c(=O)[nH]c1=O,active: 10.3 µM
18,CCOC(=O)c1nnn(-c2nonc2N)c1CN(CC)CC,inactive
19,C=CCc1cccc2cc(C(=O)NC3CCCCC3)c(=O)oc12,"inconclusive: 23.1 µM [inhibitor, single point]"
20,Cc1ccc(S(=O)(=O)N2C[C@H]3C(=O)C[C@@H](c4ccccc4F)N(S(=O)(=O)c4ccc(C)cc4)[C@H]3C[C@H]2c2ccccc2F)cc1,active: 8.2 µM
21,COc1ccccc1NC(=O)c1ccc(NC(=O)CSc2nnnn2C)cc1,"inconclusive: 29.1 µM [inhibitor, single point]"
22,CS(=O)(=O)c1ccc(C(=O)OCc2nnc(-c3ccccc3)o2)cc1[N+](=O)[O-],active: 3.66 µM
23,COc1ccc(Cl)cc1NC(=O)C(C)N1CCN(c2ccccn2)CC1 (centres undefined),"inconclusive: 29.1 µM [inhibitor, single point]"

row,Compound,Potency
1,Nc1nc(NCCOCCO)nc(N2CCCCCC2)c1[N+](=O)[O-],inactive
2,CN1C(=O)C(C)(C)c2cc(S(=O)(=O)NCC3CCC(C(=O)NC4CCCCC4)CC3)ccc21 (centres undefined),"inconclusive: 29.1 µM [inhibitor, single point]"
3,COc1ccc(-n2nc(C(=O)NCc3ccc(F)cc3)c3c4ccccc4n(C)c3c2=O)cc1,inactive
4,COCCNS(=O)(=O)c1ccc(-c2ccc(C)cc2)cc1,"inconclusive: 25.9 µM [inhibitor, single point]"
5,CCCOc1ccc(CSc2nnc(CCC)n2N)cc1,inactive
6,O=C(c1cnc(N2CCOCC2)c2ccccc12)N1CCN(c2ccccc2F)CC1,"inconclusive: 25.9 µM [inhibitor, single point]"
7,OC[C@@H]1CN(Cc2ccc3c(c2)OCO3)C[C@H](n2cnc3c(NC4CC4)ncnc32)O1,"inconclusive: 23.1 µM [inhibitor, single point]"
8,CCS(=O)(=O)Nc1ccc(-c2cc(-c3ccccc3)c3cc(C)ccc3n2)cc1,"inconclusive: 29.1 µM [inhibitor, single point]"
9,COCCCNC(=S)N1CCN(c2nc(-c3ccc(F)cc3)cs2)CC1,"inconclusive: 29.1 µM [inhibitor, single point]"
10,CC(=O)c1ccc(OCCCC(=O)NNC(=O)c2ccccn2)cc1,"inconclusive: 25.9 µM [inhibitor, single point]"
11,Cc1cc(C)n(-c2cc(N3CCN(S(=O)(=O)c4ccc5ccccc5c4)CC3)ccc2[N+](=O)[O-])n1,"inconclusive: 8.2 µM [inhibitor, partial curve]"
12,CC(C)(C)c1ccc(/C=N/OCC(=O)NCc2ccccc2)cc1,"inconclusive: 29.1 µM [inhibitor, single point]"
13,CCCC(C(=O)NNC(=O)c1cc(C)oc1C)c1ccccc1 (centres undefined),inactive
14,COc1cc(CNc2ccc(C(=O)O)cc2)cc(Br)c1OCC(=O)NC(C)(C)C,inactive
15,Cc1ccc(CNC(=O)C2CCCN(Cc3cnn(-c4ccccc4)c3-n3cccc3)C2)cc1 (centres undefined),active: 20.6 µM
16,O=C(CC1C[C@H](C(=O)N2CCCCC2)[C@@]2(CCc3ccccc3)c3[nH]c4ccccc4c3CCN2C1=O)NCCC1=CCCCC1 (some centres undefined),"inconclusive: 5.17 µM [inhibitor, single point]"
17,Cc1cc(C)cc(NCCC#N)c1,inactive
18,COCn1c(-c2ccc(OC)cc2)nc2ccccc21,inactive
19,Cc1ccc(C(=O)NC2(O)C(=O)c3ccccc3C2=O)cc1C,"inconclusive: 25.9 µM [inhibitor, partial curve]"
20,Cn1c(CSCc2ccc(Cl)cc2)nnc1SCC(=O)Nc1nc2ccccc2s1,inactive
21,COCCNC(=S)N/N=C/c1c2ccccc2cc2ccccc12,active: 3.66 µM
22,O=C(Cn1ncc2c3ccccc3n(Cc3ccc(Cl)cc3)c2c1=O)NCCCN1CCCC1=O,"inconclusive: 9.2 µM [inhibitor, partial curve]"
23,COC(=O)c1c(NC(=O)COc2ccc(OC)cc2)sc2c1CCC(C)C2 (centres undefined),"inconclusive: 29.1 µM [inhibitor, single point]"

row,Compound,Potency
1,Cc1cc(C)cc(OCCSc2nc(-c3ccc(C(C)(C)C)cc3)nc3cc(=O)[nH]n23)c1,"inconclusive: 16.4 µM [inhibitor, single point]"
2,CCOC(=O)CN1C(=O)C(O)(CC(=O)c2cccc(OC)c2)c2ccccc21 (centres undefined),"inconclusive: 18.4 µM [inhibitor, single point]"
3,O=C(Cn1nnc(-c2ccccc2)n1)Nc1cccc(S(=O)(=O)N2CCOCC2)c1,"inconclusive: 18.4 µM [inhibitor, single point]"
4,COc1ccc(-c2cc(-c3ccc(O)cc3)nc(N)c2C#N)cc1,"inconclusive: 29.1 µM [inhibitor, single point]"
5,O=C(Nc1ccc(Cl)c(S(=O)(=O)N2CCOCC2)c1)c1ccccn1,inactive
6,Cc1ccc2c(N)c(C(=O)N(c3ccccc3)c3ccccc3)sc2n1,"inconclusive: 18.4 µM [inhibitor, single point]"
7,Oc1c(Br)cc(C=Nc2ccc3nc(-c4ccccc4)[nH]c3c2)c(O)c1Br,active: 16.4 µM
8,COc1ccc2[nH]c(=O)c(CNc3ccc(C)cc3C)cc2c1,active: 5.8 µM
9,CCOc1cccc(-c2c(C(=O)N/N=C(\C)c3ccccn3)nnn2-c2nonc2N)c1,active: 2.31 µM
10,Cn1[nH]c2c(c1=O)[C@H](c1ccc(F)cc1)O[C@H](CCc1ccccc1)C2,inactive
11,Nc1cc(=O)[nH]c(SCC(=O)N2N=C(c3ccc4ccccc4c3)CC2c2ccccc2)n1 (centres undefined),"inconclusive: 20.6 µM [inhibitor, single point]"
12,CC1(C(=O)NS(=O)(=O)c2ccc(Cl)s2)CCN1C(=O)C1(c2ccccc2)CCCC1 (centres undefined),"inconclusive: 23.1 µM [inhibitor, partial curve]"
13,C/C(=N\NS(=O)(=O)c1ccccc1)c1ccccc1,inactive
14,CCn1cc(S(=O)(=O)c2ccc(C)cc2C)c(=O)c2cc(F)c(N3CCCC3)cc21,"inconclusive: 29.1 µM [inhibitor, single point]"
15,CCN(Cc1ccccc1)S(=O)(=O)c1c(N)n(C)c(=O)n(C)c1=O,inactive
16,O=C(Nc1ccc(-c2csc(Nc3ccc(Cl)cc3)n2)cc1)c1ccccc1,"inconclusive: 7.31 µM [inhibitor, partial curve]"
17,O=C(NCc1n[nH]c(=O)c2ccccc12)C1CC(=O)N(c2ccccc2)C1 (centres undefined),"inconclusive: 29.1 µM [inhibitor, single point]"
18,COc1ccc(CN2CCN(S(=O)(=O)c3ccccc3)CC2)c(OC)c1,"inconclusive: 20.6 µM [inhibitor, single point] and inconclusive: 16.4 µM [inhibitor, single point]"
19,O=C(CN(C(=O)c1nsc(Cl)c1Cl)c1cccc(F)c1)NC1CCCC1,inactive
20,CCN(CC)CCCN1C(=O)C(=O)/C(=C(/O)c2c(C)nc3ccccn23)C1c1ccc(C)o1 (centres undefined),inactive
21,COC(=O)[C@]12CCCCC=C1N(CCc1ccc(OC)c(OC)c1)C(=O)[C@H](CC(=O)NCCc1ccccc1OC)C2,"inconclusive: 23.1 µM [inhibitor, single point]"
22,CCCOc1cccn2c(N(C)C(=O)c3ccccc3F)c(CC)nc12,"inconclusive: 29.1 µM [inhibitor, single point]"
23,CCC(=O)N1c2ccccc2CC1C(=O)NCCc1ccc(OC)cc1OC (centres undefined),"inconclusive: 29.1 µM [inhibitor, single point]"
